The other results are listed elsewhere or left out.
biological target: T1, OsWOX13 (Oryza sativa, UniProt Q5QMM3 1-267); test: protein-binding microarray (RPBM); PBS, 2% BSA, 51.3 ng/ul salmon testes DNA, 50 uM zinc acetate, 200 nM TF, 25 C, 1 h; high values mean tight binding; conditions: protein: recombinant; tags: N-terminal polyhistidine and DsRed monomer fusion (pET32a); label: CyDye5-dUTP incorporated in the synthesized complementary strand; 3' TTTTT single-stranded linker to array surface; dsDNA, one strand shown
T1 sequence: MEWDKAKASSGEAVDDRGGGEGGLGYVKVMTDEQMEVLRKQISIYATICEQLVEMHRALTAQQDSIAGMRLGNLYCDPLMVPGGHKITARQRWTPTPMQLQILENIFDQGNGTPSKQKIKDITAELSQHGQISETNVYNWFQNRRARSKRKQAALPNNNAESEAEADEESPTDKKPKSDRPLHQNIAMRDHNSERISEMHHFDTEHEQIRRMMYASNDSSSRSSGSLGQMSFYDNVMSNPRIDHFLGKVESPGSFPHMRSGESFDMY
In short: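 Transcription factors were made in E. coli BL21-CodonPlus as N-terminal fusions to a polyhistidine tag and DsRed, then purified on Ni–NTA. After primer extension with Cy5-dUTP and blocking with 2% BSA, a custom Agilent array was exposed for 1 h at 25 °C to 200 nM protein in PBS, 2% BSA, salmon testes DNA and 50 µM zinc acetate. Washed arrays were scanned on an Axon 4000B, and the binding signal is per-feature fluorescence intensity in arbitrary units.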

| Sequence | binding signal |
| --- | --- |
| TTGATGACTGGCTCATAATGTTCTGAAATCCTTTCTACAGCGGAGTCACCTAGTGCAG | 19100 fluorescence intensity (a.u.) |
| TATAATTGACGCTATTGTTGAGGGAGGACAGTTGGACTTTCGGAGTCACCTAGTGCAG | 45800 fluorescence intensity (a.u.) |
| CTATTGACCGGTTAATTAGGAGGAACAGTAAGACCAAACTCGGAGTCACCTAGTGCAG | 6900 fluorescence intensity (a.u.) |
| TTCCAATTGATAGACAGGTAATATAATGCCATCTATTCCACGGAGTCACCTAGTGCAG | 44200 fluorescence intensity (a.u.) |
| CCTCTCTTGATTGTGTTGTGCAGTTTGTTTGTGTAGTGGACGGAGTCACCTAGTGCAG | 16500 fluorescence intensity (a.u.) |
| ATCATATATGATCTGTTAAATTTTACTTTAACTTTAGAACCGGAGTCACCTAGTGCAG | 3410 fluorescence intensity (a.u.) |
| TTTACACATCATTCTCAAATCACGGATCAAATCAACAAACCGGAGTCACCTAGTGCAG | 4680 fluorescence intensity (a.u.) |
| ATTGATAATTAGTTCACCGAAGTAGTAGGGCGCGACACGCCGGAGTCACCTAGTGCAG | 15900 fluorescence intensity (a.u.) |
| CGTAAATTTCACTCGCTGTTGCCCTATCCTTAGCCGTTGACGGAGTCACCTAGTGCAG | 8320 fluorescence intensity (a.u.) |
| TACTCTGATTTTGTCCATTACCAGCTGCAAATGGACCAGCCGGAGTCACCTAGTGCAG | 19300 fluorescence intensity (a.u.) |
| CTGACTGGTGACTGGTGGTGGGTGAGAACATCGCTTGGTCCGGAGTCACCTAGTGCAG | 18800 fluorescence intensity (a.u.) |
| TGCATGGCTCAAAATTAAATTGCAATTCCAAATTGACAGTCGGAGTCACCTAGTGCAG | 4880 fluorescence intensity (a.u.) |
| GAATTGATTGAGGTTGAAGGCTTCAAGCGATATACGTACTCGGAGTCACCTAGTGCAG | 44800 fluorescence intensity (a.u.) |
| CTGACATAACTATCTGTTGGCTAATGGCTACAGTAAAGTTCGGAGTCACCTAGTGCAG | 3150 fluorescence intensity (a.u.) |
| TTTAATCACAAGCAAATCAATTAACTCATCCATACTCATCCGGAGTCACCTAGTGCAG | 24200 fluorescence intensity (a.u.) |
| CGATAATTGTCACTGATTCAAAGTAAATATGTGTTCAGAACGGAGTCACCTAGTGCAG | 36400 fluorescence intensity (a.u.) |
| TGCTGATAGATCCAGTAGGTGTGTGCCAGCCACCAAGCAACGGAGTCACCTAGTGCAG | 7200 fluorescence intensity (a.u.) |
| TGTTTTATTTGATTGGGAGACATGGGAATTTTGGTGGGATCGGAGTCACCTAGTGCAG | 32000 fluorescence intensity (a.u.) |
| AATTAATCATGTTGACAGCCGCAACGCTAGCTTGCCATAGCGGAGTCACCTAGTGCAG | 8890 fluorescence intensity (a.u.) |
| ATTAACTTTCAAATTAAGGTTTAAAATTCAAGTTTTGGTTCGGAGTCACCTAGTGCAG | 7720 fluorescence intensity (a.u.) |
| TTTTCTATCACATCAAAATTTTCCTAGGCTGTGTTTAGTTCGGAGTCACCTAGTGCAG | 6960 fluorescence intensity (a.u.) |

| Sequence | binding signal |
| --- | --- |
| TATATATATATATATATATATATATATATACTATATAAAGCGGAGTCACCTAGTGCAG | 13200 fluorescence intensity (a.u.) |
| AATATAAATGCAATTGTGATTTTCTGTGTTCAACATTTGACGGAGTCACCTAGTGCAG | 8020 fluorescence intensity (a.u.) |
| TCTGACCGAAATCTTTGGAGATAATTATGTATTGCAATTTCGGAGTCACCTAGTGCAG | 10400 fluorescence intensity (a.u.) |
| CTGCAATCACCAATTTTAAGTTTAATTTGAGATACAGTACCGGAGTCACCTAGTGCAG | 21100 fluorescence intensity (a.u.) |
| TATCAGGTAATTATTTACGCAAATTTGTGTATAATTGTGTCGGAGTCACCTAGTGCAG | 13600 fluorescence intensity (a.u.) |
| TTGCTCAGTTAATTATGGAGGCTAGCGTCTGAAGCGTTCACGGAGTCACCTAGTGCAG | 3710 fluorescence intensity (a.u.) |
| AACAATTGTTAACTGCGAAATTCTAAAACTGCTACTCCTACGGAGTCACCTAGTGCAG | 5740 fluorescence intensity (a.u.) |
| GCGCCATGATGTTCAATCAGATGACATCATAACGTAAAGACGGAGTCACCTAGTGCAG | 18600 fluorescence intensity (a.u.) |
| TAGGATTATGTTGGTGATGATGATGACTAGTGTGCCTGAACGGAGTCACCTAGTGCAG | 4220 fluorescence intensity (a.u.) |
| TACTTAATTATTCACATGCTAATGACTTATTTGCTACATTCGGAGTCACCTAGTGCAG | 34300 fluorescence intensity (a.u.) |
| AATAATTGAAACAGAAAGCTTTAAGCTGCTGGTGTTCCCTCGGAGTCACCTAGTGCAG | 33000 fluorescence intensity (a.u.) |
| ATCCTCTTTCATCTCATCCGTCCATCCACCATTTCATTTACGGAGTCACCTAGTGCAG | 4000 fluorescence intensity (a.u.) |
| AAATAATTGTTTAAGATTTATCCATGCCACTAAATAGTTTCGGAGTCACCTAGTGCAG | 18500 fluorescence intensity (a.u.) |
| GTGATTGACTGATTGTGTGATTGTGTGAAGTGTATTGGTTCGGAGTCACCTAGTGCAG | 65000 fluorescence intensity (a.u.) |
| GTTAGTTAATGGAAGACAGCCCCTGGTACCTTTCCAATGGCGGAGTCACCTAGTGCAG | 3650 fluorescence intensity (a.u.) |
| ATGTGTAAATTGAATTAATGGAGTTGGTTGTGAAATCGTTCGGAGTCACCTAGTGCAG | 25300 fluorescence intensity (a.u.) |
| ACGGATTAATTAGGCTTAATAAATTTGCCTCGCGGTTTCTCGGAGTCACCTAGTGCAG | 39200 fluorescence intensity (a.u.) |
| AGTGTAATTTGTGACAATTACTCAGACAACTCTGCATTTTCGGAGTCACCTAGTGCAG | 20700 fluorescence intensity (a.u.) |
| ATGCCAATTAACCTCCAAGATAAGCATCCATCGATCCACCCGGAGTCACCTAGTGCAG | 8590 fluorescence intensity (a.u.) |
| TTATATTAATTGATGGTCATTATTGTTGGAGATTATATTGCGGAGTCACCTAGTGCAG | 60800 fluorescence intensity (a.u.) |
| TTTGATTAGATGGTGTGGTGTTTGGCTGATACACTGATACCGGAGTCACCTAGTGCAG | 32500 fluorescence intensity (a.u.) |

Source: article PMC7819943, “Rice protein-binding microarrays: a tool to detect cis-acting elements near promoter regions in rice”
